# Laboratory results from the supplement of paper PMC11417369.
# Some of the results follow.
# System: PfHDP1 homeodomain (GST-tagged)
# Test: gcPBM binding intensity (ln(normalized median fluorescence intensity)); higher = stronger DNA binding
# In short: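 For binding intensity, the highest Masliner-normalised natural-log median intensity across replicate spots of either probe orientation was taken. Protein bound to the array was stained with Alexa488 anti-GST antibody and scanned at 488 nm. The protein, GST-tagged P. falciparum DNA-binding domains from E. coli at about 25 μg on average, had been applied for 1 h to an Agilent 4 × 180k array of primer-extended double-stranded 36-bp intergenic genomic probes and negative controls.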
row,Sequence,gcPBM binding intensity (ln)
1,TACAAAAATGAAAAAAGTACATATCATTTAATATAA [XGTACX_site8066],6.3
2,TTTTTTTTTTTTTTTTGTACTCATAAAAATATATTA [XGTACX_site3458],6.47
3,AAAATCACAAAACACACACACACAAAAAAAAAAAAA [CACACA_site1443],6.32
4,TATCTGTATTTATATACACACATATTCTTTTTACAC [CACACA_site4798],6.83
5,CACATATAGTTATATGCACACATCTTACACATATAT [CACACA_site3692],10.2
6,CATGGGCAAATATTCTCACACATAAACATAAACATA [CACACA_site4597],6.61
7,GTTTGAAGAACTATAAATGTATAAATAAAAGTTTAG [TGCATGCA_negctrl_site222],6.19
8,ATGGTGCAACATTATGCACACCGTTAAATAACTAAT [CACACA_site9280],11.7
9,AAAAAAGTAAAAAAAGCACACACGAAAAAAAATAAA [CACACA_site2233],6.76
10,TGAGAAAATTAAAAGGTGCTCAGAAATTTTATATTA [GTGCAC_site9954],5.95
11,TTTTCTTTTAATATTTTTAATAATTATATTTTGAAA [XGTACX_negctrl_site495],6.26
12,AATACGACAAACAAATGTACAAATAAATATTCGCGT [XGTACX_site6427],6.84
13,AAAAATGTAAAGTGCGTGCACAAAATATTTGGAAAA,9.43
14,AAATTACTAATGTGCACACATACTAACGTTTAAATA [CACACA_site3572],11.3
15,AAAGTACAATCATAATCACACGTGTCTATTATATAC [CACACA_site8103],6.37
16,TATATTTATTTATATGTATGCATGTCTGTATATGCT [TGCATGCA_site339],6.23
17,CAAAGATAAAATGATGCACACAAAAGGGTGTAATAT [CACACA_site8499],8.77
18,ACATGGTTTACACGTGCATGTGGATGACTGGACATT [TGCATGCA_site640],8.4
19,AGGCCCTATGTTGTTACACACATAGAATGATACATC [CACACA_site1266],6.39
20,AAAACAGTGACAACTCGTACTTATATTTTTTTTTGT [XGTACX_site4968],6.24
21,TAAAATTTAAAATATACACACAAAAAGTTATTACAA [CACACA_site4080],6.55
22,ATTAAATAATAATAATGTACGTATTATATTAATACA [XGTACX_site5439],6.08

row,Sequence,gcPBM binding intensity (ln)
1,AAATTATTATGAAATGGAAAATGCATAAATTGTTTT [XGTACX_negctrl_site206],6.39
2,CTCTTTAAAAATATGGGTACAAAAAAAAAAAAAATA [XGTACX_site6185],6.37
3,ATTCTTTACTCATAAAATTATATTATATAAACTTTT [XGTACX_negctrl_site554],6.97
4,AATTGTACGTAGGGGTATAAAAGCTTAAAAATGGGG [CACACA_negctrl_site1392],7.22
5,AAAGCAAAAGGAAAATAACCAACCCTAATTAACACA [CACACA_negctrl_site530],6.73
6,CCCTTTTTTTTTTAATGTACATATAATTATATATTT [XGTACX_site8568],6.87
7,GGAAACCTTTTTTTTACACACAATATATTAAGACTT [CACACA_site4899],6.44
8,GCAGCAGCATTTTCAGTGCATTATTATATTGTTCAT [GTGCAC_site9926],9.62
9,GTTGCACAATGTTACACACACAATATATATCGTTAA [CACACA_site1275],9.41
10,GTGTACTTTTAAATAGTGCATTTTACAATAATAAAA [GTGCAC_site9653],8.01
11,GTAATAAAATGACATACATGCATTACAATTATGTAA [TGCATGCA_site220],5.97
12,TATTATAATACTTATTGTACTTTTAGGTTAATTTAT [XGTACX_site995],6.23
13,TAGTATTAAATATATACACACATATATACATATAGA [CACACA_site2154],6.47
14,TTAATTTTTTTTTCTTGTACACACTATTTTATAATT [XGTACX_site8783],7.06
15,TAGGTCCTCATTTTATGTACATAAAGAAATATGATT [XGTACX_site4138],6.76
16,TACATACATACATACACACACACATATATATATATA [CACACA_site42],9.22
17,TCCTTCGAAACTAAAATTCATTTAAAATATTGATAT [CACACA_negctrl_site369],6.11
18,AAAGAAAAAAAAATTACACACATATATTATAGATAT [CACACA_site7495],6.37
19,ATATATGCTAATATATGTACTGATTATATCTCTTCA [XGTACX_site7156],6.47
20,AAAAAAAATATATAAACACACATATTTATATACGCA [CACACA_site1631],6.18
21,ATATAAACATTTAGTAATCCATATAGGTACTACTGA [CACACA_negctrl_site1249],6.02
22,TATTTATAGATATATACACACATATACATATTGTTT [CACACA_site7611],6.63

row,Sequence,gcPBM binding intensity (ln)
1,TCTTATCCATATATTACACACTATATATAGAAATTA [CACACA_site291],6.9
2,AGAAATGAAATCCAAAAACGAGGAACCAATAACGCA [CACACA_negctrl_site1758],6.52
3,AAGGCAAACAAACACACACACATATATACCTATATA [CACACA_site5203],6.89
4,ATATTATATTATTAATGTACATATATATAATTTTAA [XGTACX_site4974],6.47
5,AGATATCTTGTGAAATAAAAAAAATAATTGCTTATA [CACACA_negctrl_site798],6.1
6,AAATTAGACTATAATACACACATAAAAAAAAAAAAA [CACACA_site6155],6.45
7,ATATATATATATGTATGTACATATTTTTTTTAACAC [XGTACX_site8475],9.06
8,GCAGTATTTCGGAACACACAAACATAAATATGTATT [CACACA_site2316],6.44
9,ATATATATTTAAAGATGTACATAATGAAATGGTTAT [XGTACX_site4706],7.36
10,AAATTTATTTATTATAGTACACTTAATACTACCCAA [XGTACX_site41],6.33
11,AGCACAGACGGACACACACACACACCCACAGACACA [CACACA_site4358],6.66
12,GCACAATTTACACTTAAACACACAAAAAAAAATTAT [CACACA_site8642],6.8
13,CATCTTAGTTTGAGTTGTACAATATTTATAAAAATA [XGTACX_site693],6.69
14,ACAAGTTTAACATTTCGTACTTATTGTGTTTTTTTT [XGTACX_site5487],6.73
15,TATACACGCGGACACACACACACACGCAAAAAAAAA [CACACA_site6377],7.03
16,TTTACACCGTAATATGCATGTGTGTATATATTTTTG [TGCATGCA_site186],6.63
17,ATAAGCCATTTTTGTGGTACATAAAATAGATATATA [XGTACX_site5175],5.87
18,TAAAAACCAAAGAAAAGTACAAATTTAAATGAGAAA [XGTACX_site7450],6.68
19,TGAACTCATAGATTTAGTACATATATAAAAAAATTC [XGTACX_site1692],6.17
20,TTAAATGGAAAAATATGTACATATATATATATATTT [XGTACX_site2286],6.5
21,ATATTAAATTCAATTTAATGTTTTGTGAATTTTAGA [CACACA_negctrl_site1421],6.14
22,TAAACACCCATATAAACACACATACATACATACATA [CACACA_site5383],6.79

row,Sequence,gcPBM binding intensity (ln)
1,GATTAATTTAAAAAATGTACATTTTATTGTATAACC [XGTACX_site5539],6.55
2,ACAATATGTATATATATATATATGCAAATGTATAAA [CACACA_negctrl_site53],7.35
3,CCAAGAAACCAAAAAAGTACATACATGGTTATAATT [XGTACX_site4249],6.92
4,TTTTTTGTTATTGGCGTGCACATATCCATTTATAGT,9.48
5,CATATATATTTATGTACACACATTAATAAAAAAAAA [CACACA_site5741],6.41
6,CTTTTAATATTAAGATGTACTTAGAATTTTTTTTTT [XGTACX_site8338],6.36
7,TGTAGAGCGCAAAGTAGTACTACAAATTATGGAGGG [XGTACX_site3022],7.73
8,AACAGCATATCACATTTCTTCAAAAAAAAATAAAAT [CACACA_negctrl_site733],6.33
9,ATATATATAAATAATTGTACTTAAAAAAAAAAAAGG [XGTACX_site6847],6.51
10,TTTGTTAAAAATATATTATGAATAAAAATATATTTT [CACACA_negctrl_site170],6.03
11,TACAAAATAACTAGCACACATATGTATAAACATATA [CACACA_site5948],6.33
12,TATGTCAATCAAGCAAGTACATATATATATAAATAT [XGTACX_site7554],6.25
13,TTCAAAACTTAAAATCGTACAAGACAATTATTATAT [XGTACX_site6626],6.32
14,GCCATTGTACCATCCACACACATATATATATGTATA [CACACA_site2704],7.81
15,AATTATATTACGAAATGTACATATAATAATGTATAT [XGTACX_site4410],6.38
16,TTAAAACATAAAAAAAGTACATACAAATATATATAA [XGTACX_site789],6.34
17,ACTTATTTATTTTTAGTGCATTTAGTTTTATTTTAT,9.65
18,TATAACTATAAAAGGAGTACTATATATATATATATA [XGTACX_site1388],9.37
19,AATAGTACAAAAAAAAAAAAAAAAAAAAAAAAAAAA [CACACA_negctrl_site1376],6.15
20,TCTACAAAATTATCATGTACATATTATTATAATTAT [XGTACX_site6585],6.47
21,TATTTGCAATGCAAATGTACATGAATTTTTTTAATG [XGTACX_site7474],9.21
22,TAAAAAGAAAAAAAGAGTACAAACAAAATAATAATT [XGTACX_site6071],6.85
